89 sequences from the supplement of paper PMC11417369 can be followed below.

Some of the results follow.

The test has as its system PfSIP2 AP2 domain 1 (GST-tagged). Nature of the test: gcPBM binding intensity (ln(normalized median fluorescence intensity)); higher = stronger DNA binding. The essentials:
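Binding intensity is defined as the maximum Masliner-normalised natural-log median intensity across replicate spots for either probe orientation. It was measured on an Agilent 4 × 180k array of primer-extended double-stranded 36-bp intergenic genomic probes and negative controls, to which GST-tagged P. falciparum DNA-binding domains made in E. coli were applied for 1 h in 1× PBS with 1% milk, 0.2 mg/ml BSA, 0.5% salmon testes DNA and 0.03% Triton X-100. Detection was by Alexa488 anti-GST antibody and scanning at 488 nm.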
Consider “TATAAAATTCTGACTTGTACATGTGAAAAATAATTA [XGTACX_site1396]”, for which the “gcPBM binding intensity (ln)” value turned out to be 6.9.
Under “TATATATATATATAATGTACACATTTTTATAACTAT [XGTACX_site5714]” stands 9.18; under “AAAGATGGAAAAAAAAATTTGTGTGTTGAAAGATAT [GTGCAC_negctrl_site19]”, 7.14.
Under “AAAATACAATTTCTAGCACACAAAATATTATTATAA [CACACA_site9056]” stands 6.82; under “GCGTTGTTTTTAAAAAGTACATTTTTATATAAGTTA [XGTACX_site8780]”, 7.29; under “CTTAATATATGTGGCACACATGTGGAGTCCTATTAA [CACACA_site4281]”, 6.98.
Under “AAAAAAATATTAATGTGTACATAATAATAACATATA [XGTACX_site8319]” stands 7.04; under “GCCAAAAGGATATGCACACACACACCCATATATATA [CACACA_site2198]”, 7.62; under “CAAGGAACCGGACACACACACATAAATGTATTTATA [CACACA_site4574]”, 6.78.
Take “CATTATCATGTTTTTTGTACTCATAATAAAAAGCAG [XGTACX_site2056]”: the “gcPBM binding intensity (ln)” value worked out at 7.35.
Under “ATTTACAAAAGGAAAGTGCAAACATGTGATTAAACA [CACACA_negctrl_site714]” stands 7.97; under “TATATATAGAAACACACACACACCAAAGCGTAGCGC [CACACA_site62]”, 6.77.
Under “AATAATTGTTAAAGTTGTACTATACGTATATAAGAA [XGTACX_site1432]” stands 7.04; under “AAAAATGAATTATTTTGTACATATATATATATATAT [XGTACX_site3410]”, 9.18.
Under “AACTTATTTAAATTCACACATATATAAAATACTTAT [CACACA_site4394]” stands 7.25; under “ATCAATTTAATTTATTGTACTTGTTTGTTTTTTTAT [XGTACX_site7544]”, 6.94.
On to “GATAACATAATATGTTGTACATAAAAATTTTTATCA [XGTACX_site1969]”, for which the “gcPBM binding intensity (ln)” value was 7.03.
Under “ATAAAGATATGACACACACACATATTATAGATATAT [CACACA_site7434]” stands 7.08; under “ACATATGACTATAATACACACTTGTATTATTAATAT [CACACA_site6951]”, 6.88.
As for “ATTTTAATTACATATACACACAAAGGTTCATAACAA [CACACA_site9008]”, the “gcPBM binding intensity (ln)” value came to 7.14.
As to “TAATTTAAACAAAAAAGTACAAATTTCTTTTTATTA [XGTACX_site5244]”, the “gcPBM binding intensity (ln)” value was found to be 6.38.
Under “TACTCATAATATTGATAATTAAAAAGATAAACTATT [XGTACX_negctrl_site299]” stands 6.9; under “ATTATTTTATTATAGTGTACTTTTTTAATCAAAGGA [XGTACX_site8921]”, 7.27; under “AATTTTATTACTTTTACACACCTATATATTATTCAT [CACACA_site3273]”, 7.04.
Under “TTTTAAAAAAAATATAAAAAAAGAGGAGGGATGGTA [GTGCAC_negctrl_site35]” stands 7.25; under TATGTTTTTACGTGTGTGCACTTTGTAGAGATAAGT, 10.7.
Under “TACTATATAAGTAAGGCATGCATGCCGATTTTTTTA [TGCATGCA_site100]” stands 6.57; under “TTCTTTAATACTTATTGTACAATATAATAATCACAA [XGTACX_site6364]”, 7.48.
For the sequence “AAAAAAAAAAAAATATGTACTTATTTTTATGTTAAA [XGTACX_site8802]”, the “gcPBM binding intensity (ln)” value amounted to 7.3.
Under “TACTTAAAATATTTAACAAATAAATAAATAAATAAA [XGTACX_negctrl_site523]” stands 7.08.
Under “TGAAACCGTTACATGTGTACATATGTTACACATAAT [XGTACX_site7250]” stands 6.94; under “ATATTTTTATTTTCTTTACACACCACATAATTTTTT [CACACA_site4060]”, 7.09; under “ATTAGATATGTAAACTAAAATTATATTCATGATAAT [TGCATGCA_negctrl_site182]”, 7.02.
Under “TCTAACAACATGCGCACACACATGAATATTCATATT [CACACA_site1540]” stands 8.67.
Consider “TCACATCTTATATACTGTACATTTCGAATATAAATT [XGTACX_site2508]”, for which the “gcPBM binding intensity (ln)” value came out at 7.04.
Under “TTTCTTTTACATATTTGTACATATATAAATTTATAT [XGTACX_site1787]” stands 7.21; under “CATACATACCTATATACACACATATAAAATAATATA [CACACA_site7290]”, 7.27; under “AGTATACAGATATATACACACATATTTATATTTATA [CACACA_site6394]”, 6.83.
On to “GGCAACATTTGAAACACACACACATACAAACAAACA [CACACA_site3307]”, for which the “gcPBM binding intensity (ln)” value came to 7.57.
Under “TGTTATTATTTGTACACACACATATATATCCTTGTT [CACACA_site3616]” stands 7.19; under “TCTATATGTTGATTCACACATAAAGAATAAATAAAA [CACACA_site6017]”, 6.83.
Under “AACACGCGCAGACACACACACACACCCACATATATA [CACACA_site2205]” stands 7.32; under “TATAATATATTATATACACACATTATGAAATCCACA [CACACA_site1330]”, 7.18; under “TATATGAACTTATATACACACCATTTTTGTAAATCT [CACACA_site4547]”, 6.88.
Under “ATAAATATATTTTATAGTACATAAATATCAAAAAAA [XGTACX_site2334]” stands 7.03.
Regarding “AAACAATACTGATATTGTACATAATAAAAAAAAATA [XGTACX_site3330]”, the “gcPBM binding intensity (ln)” value is 6.87.
As for ATTTTGATGCATGGGTTGCACTAACTTTTGCCCAGA, the “gcPBM binding intensity (ln)” value was 9.11.
“TTTTTTTTTTTTGATGCACACACCTGAACGAGTTAA [CACACA_site317]”: the “gcPBM binding intensity (ln)” value amounted to 7.86.
For “TATTTTTATATATGACGTACTCTACAATTATTAATG [XGTACX_site5818]”, the “gcPBM binding intensity (ln)” value was determined as 7.32.
Under “AAAATATGTATGTAAAGTACTAATATACAAATTTTT [XGTACX_site5186]” stands 6.73; under “ATATAAATATTCCACACACACACAAAAAAAAAAAAA [CACACA_site7678]”, 7.07; under “TTAATTATAAGAAAAAGTACTCATTACATTATAGAA [XGTACX_site678]”, 6.96.
Under “TAGTCGTTTTTTTAATGTACTCACGCATAATATAAT [XGTACX_site6499]” stands 7.28; under “GTTCAAAATATGAACACACACATATAGATTTATATA [CACACA_site7054]”, 6.9.
“ATCATTTTTAAAGGAACACACAAAAAAAATTAGAAT [CACACA_site1370]”: the “gcPBM binding intensity (ln)” value came out at 6.93.
Under “AAAGGATATAGACACACACACACATATATATATATA [CACACA_site2200]” stands 9.61; under “TGAAAAGTAAAATACACACACATAATATAATTTATA [CACACA_site1989]”, 6.77; under “CATATACATCCACATACACACATACACCCATACACA [CACACA_site5038]”, 7.38.
On to “ATTATTTTTTTTGTTACACACATGACTTATTTTTAT [CACACA_site3228]”, for which the “gcPBM binding intensity (ln)” value was 7.32.
For the sequence “ATATTTTTTTTTTTATGTACTTATTTATAATTATTT [XGTACX_site5279]”, the “gcPBM binding intensity (ln)” value was determined as 7.19.
Turning to “AGCTTGTAACAGTTTACACACTAATATTTATAAATT [CACACA_site6024]”, the “gcPBM binding intensity (ln)” value stood at 6.87.
Under CTTATAAGAATACTAGTGCACATAATTTAACGAAAA stands 10.6; under “TACTTATTGTGATACTTATATTATTTTATGATTAAA [XGTACX_negctrl_site353]”, 6.93; under “TATATTTATTTATATACACACATAATAAAAAATATA [CACACA_site6527]”, 7.01.
Under “TATTAATGATAAAAAAGTACATTATTATATGATATT [XGTACX_site4235]” stands 6.84; under “TTTTTTTTTTTTTTTTCACACATTGTACTTTTTTAT [CACACA_site5193]”, 7.41; under “TAAGTCATATAAATGTGTACATAAAAAAAAAAAATG [XGTACX_site1645]”, 7.05.
Consider “ATCATTTGCATACGCACACACACATAAAAAGAAAAA [CACACA_site355]”, for which the “gcPBM binding intensity (ln)” value is 7.54.
Under “TCTATCAAATTTGAAGGTACACATTTGAGATAATTA [XGTACX_site3797]” stands 6.86; under “AATAATAAATAAATGTGTACTTAAAAATATTATATT [XGTACX_site3005]”, 7.15; under “TTGTATCATATATTATGTACATATTGATTTATTACC [XGTACX_site12]”, 7.24.
As for “CAAAGTATTATGATTACACACATGTGCTTTTTTCTT [CACACA_site163]”, the “gcPBM binding intensity (ln)” value is 6.71.
Under “ATGTCCTATATTAGTACACACATGAAAATATAAATA [CACACA_site7497]” stands 7.27; under “TCCTATGATGATGATAGTACATATGAGTTCAAAAAA [XGTACX_site273]”, 6.81.
Under “ACAATTAATCAAACAAGTACAAAATATATCCCTATT [XGTACX_site6223]” stands 7.03; under “TTATTGTTATTTGTTTGTACATAATATAATATATTA [XGTACX_site6477]”, 7.03; under “AACCATACACAAATAAACATAGACACAGATACCTCC [CACACA_negctrl_site598]”, 6.95.
For “AATATAAAAAAAAACAAAAAAAAAATTTTGGTTCAC [CACACA_negctrl_site1290]”, the “gcPBM binding intensity (ln)” value was 6.83.
In the case of “AATATGTGTATAGATAGTACACATGCTGATAATATA [XGTACX_site5941]”, the “gcPBM binding intensity (ln)” value turned out to be 7.04.
Under “AAAATTTTGGAACGTGCACACATATGTAATATATAT [CACACA_site9004]” stands 9.92; under “TTTTTAAAATATTTAACACACAATTATAATGCATAA [CACACA_site3932]”, 7.23; under “AGTAGTCTGGAGAAATGTACACAGTATCTGGTAGCT [XGTACX_site4871]”, 6.85.
Under “TTATATTTATTTAATGAACACACGATATATTATTTT [CACACA_site1601]” stands 6.88; under “AAAAAAATTAATAATGTGCACTTTTTAGTATTTTTA [GTGCAC_site9744]”, 10.3; under “AAATGTTAATTAAATGCATGTACAAAAGGAGCGAAT [TGCATGCA_site942]”, 7.99.
Consider “TTGTAGATATTTATATGTACGAATTTATAAATATAG [XGTACX_site3611]”, for which the “gcPBM binding intensity (ln)” value stood at 7.12.
Regarding “TTATTTATCAAAAAATGTACAAAAATATATAAACAA [XGTACX_site940]”, the “gcPBM binding intensity (ln)” value came out at 7.26.
Under “TTTGTCAACCAAAATTGTACAAATGTATTCCCAATA [XGTACX_site1350]” stands 6.75; under “ATACATATTAATATGTGTACACATTTTTATTTTTTT [XGTACX_site930]”, 6.99.
